Measured values from the supplement of paper PMC4967469.
A lower IC50 marks a more sensitive line; fits outside the tested doses are given as limits. AUC is the area under the same curve over the 256-fold range up to the top dose, as a fraction; values near 1 show little effect. For some assays here: The top dose, if marked as inferred, is not printed in the source and was worked back from the curve model. For some assays here: Where an entry number is given, a second screen of the drug exists; the two often differ.

Legend:
Assay in all cases: Viability of human cancer cell lines after 72 h of drug (GDSC screen)
Vinblastine = compound: CC[C@]1(O)C[C@@H]2CN(CCc3c([nH]c4ccccc34)[C@@](C(=O)OC)(c3cc4c(cc3OC)N(C)[C@H]3[C@@](O)(C(=O)OC)[C@H](OC(C)=O)[C@]5(CC)C=CCN6CC[C@]43[C@@H]65)C2)C1 [Vinblastine]; conditions: top dose 0.1 µM; top dose inferred
Description: (§1)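 Human cancer cell lines in 384-well plates, medium with 10% serum, drug for 72 h over a 256-fold dose range (nine 2-fold or five 4-fold steps up to the top dose). Adherent lines were fixed and stained with the nucleic acid dye Syto60, suspension lines read with resazurin; signal relative to control wells, capped at 0 and 100%. One two-parameter sigmoid per drug and line, fitted in a mixed model over all curves with the slope shared within a line.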

XMD13-2 = compound: O=C(NC1CC1)c1cccc(-c2ccc3c(NC(=O)C4CC4)n[nH]c3c2)c1 [XMD13-2]; conditions: top dose 10.24 µM; top dose inferred
Description: as §1

Afatinib = compound: CN(C)C/C=C/C(=O)Nc1cc2c(Nc3ccc(F)c(Cl)c3)ncnc2cc1O[C@H]1CCOC1 [Afatinib]
Description: as §1

SNX-2112 = compound: CC1(C)CC(=O)c2c(C(F)(F)F)nn(-c3ccc(C(N)=O)c(N[C@H]4CC[C@H](O)CC4)c3)c2C1 [SNX-2112]; conditions: top dose 2.56 µM
Description: as §1

PF-562271 = compound: CN(c1ncccc1CNc1nc(Nc2ccc3c(c2)CC(=O)N3)ncc1C(F)(F)F)S(C)(=O)=O [PF-562271]; conditions: top dose 2.56 µM; top dose inferred
Description: as §1

[1] = top dose 0.5 µM, screen: GDSC drug entry 1032
[2] = top dose 10 µM, screen: GDSC drug entry 1377, top dose inferred

| Cell Line | AUC (Vinblastine) | IC50 (Vinblastine) [µM] | AUC (XMD13-2) | IC50 (XMD13-2) [µM] | AUC (Afatinib; [1]) | IC50 (Afatinib; [1]) [µM] | AUC (Afatinib; [2]) | IC50 (Afatinib; [2]) [µM] | AUC (SNX-2112) | IC50 (SNX-2112) [µM] | AUC (PF-562271) | IC50 (PF-562271) [µM] |
| --- | --- | --- | --- | --- | --- | --- | --- | --- | --- | --- | --- | --- |
| YKG-1 (glioma, adherent) | 0.514 | 0.00685 | 0.89 | > 10.2 | 0.916 | > 0.5 | 0.98 | > 10 | 0.633 | 0.376 | 0.931 | > 2.56 |
| NCI-H292 (lung adenocarcinoma, adherent) | 0.41 | 0.00335 | 0.979 | > 10.2 |  |  |  |  | 0.187 | 0.0146 | 0.851 | > 2.56 |
| DEL (lymphoid neoplasm, suspension) | 0.224 | 0.00123 | 0.592 | 1.08 |  |  |  |  | 0.497 | 0.158 | 0.911 | 2.27 |
| HSC-4 (head and neck, adherent) | 0.39 | 0.00282 | 0.957 | > 10.2 |  |  |  |  | 0.794 | 1.64 | 0.885 | > 2.56 |
| CFPAC-1 (pancreas, adherent) | 0.82 | 0.0685 | 0.967 | > 10.2 | 0.901 | > 0.5 | 0.823 | 7.06 |  |  | 0.888 | > 2.56 |
| DU-145 (prostate, adherent) | 0.863 | > 0.1 | 0.979 | > 10.2 |  |  |  |  | 0.666 | 0.492 | 0.831 | 1.88 |
| TK (B-cell lymphoma, suspension) | 0.678 | 0.0187 | 0.887 | 9.71 | 0.989 | > 0.5 | 0.978 | > 10 |  |  | 0.976 | > 2.56 |
| HCC-15 (lung squamous cell carcinoma, adherent) | 0.54 | 0.00827 | 0.96 | > 10.2 |  |  |  |  | 0.887 | > 2.56 | 0.928 | > 2.56 |
| NCI-H358 (lung adenocarcinoma, adherent) | 0.832 | 0.0743 | 0.86 | > 10.2 |  |  |  |  | 0.31 | 0.0438 | 0.855 | 2.42 |
| 8505C (thyroid, adherent) | 0.415 | 0.0036 | 0.919 | > 10.2 | 0.982 | > 0.5 | 0.983 | > 10 |  |  | 0.89 | > 2.56 |
| KP-1N (pancreas, adherent) | 0.583 | 0.0107 |  |  | 0.986 | > 0.5 | 0.966 | > 10 |  |  | 0.889 | > 2.56 |
| NB1 (neuroblastoma, semi-adherent) | 0.434 | 0.00404 | 0.946 | > 10.2 |  |  |  |  | 0.776 | 1.13 | 0.87 | > 2.56 |
| TK10 (kidney, adherent) | 0.748 | 0.038 | 0.935 | > 10.2 | 0.717 | 0.148 | 0.473 | 0.52 |  |  | 0.906 | > 2.56 |
| NCI-H1975 (lung adenocarcinoma, adherent) | 0.594 | 0.0118 | 0.967 | > 10.2 |  |  |  |  | 0.645 | 0.428 | 0.869 | > 2.56 |
| NCI-H1781 (lung adenocarcinoma, adherent) | 0.723 | 0.0268 | 0.989 | > 10.2 |  |  |  |  | 0.958 | > 2.56 | 0.937 | > 2.56 |
| PC-14 (lung adenocarcinoma, adherent) | 0.387 | 0.00317 | 0.889 | 9.52 |  |  |  |  | 0.328 | 0.0565 | 0.968 | > 2.56 |
| HT-1197 (bladder, adherent) | 0.908 | > 0.1 | 0.985 | > 10.2 |  |  |  |  | 0.935 | > 2.56 | 0.976 | > 2.56 |
| STS-0421 (soft tissue, adherent) | 0.572 | 0.0102 |  |  | 0.978 | > 0.5 | 0.963 | > 10 |  |  | 0.81 | 1.63 |
| A431 (skin, adherent) | 0.555 | 0.00876 | 0.887 | > 10.2 |  |  |  |  | 0.338 | 0.0578 | 0.844 | 1.72 |
| SW620 (large intestine, adherent) | 0.61 | 0.0121 | 0.839 | 5.83 |  |  |  |  | 0.356 | 0.0675 | 0.881 | 2.13 |
| CW-2 (large intestine, adherent) | 0.822 | 0.064 | 0.963 | > 10.2 |  |  |  |  | 0.773 | 1.07 | 0.989 | > 2.56 |
| GAK (melanoma, adherent) | 0.904 | > 0.1 | 0.985 | > 10.2 |  |  |  |  | 0.841 | 1.66 | 0.982 | > 2.56 |
| LB831-BLC (bladder, adherent) | 0.683 | 0.0204 | 0.951 | > 10.2 | 0.987 | > 0.5 | 0.966 | > 10 |  |  | 0.826 | 1.59 |
| EPLC-272H (lung squamous cell carcinoma, adherent) | 0.59 | 0.0114 | 0.833 | 7.8 |  |  |  |  | 0.377 | 0.0702 | 0.933 | > 2.56 |
| IST-SL2 (small cell lung carcinoma, suspension) | 0.744 | 0.0309 | 0.7 | 2.32 | 0.973 | > 0.5 | 0.973 | > 10 |  |  | 0.962 | > 2.56 |
| KARPAS-231 (B-cell leukaemia, suspension) | 0.296 | 0.00196 | 0.52 | 0.716 | 0.874 | 0.305 | 0.994 | > 10 |  |  | 0.958 | > 2.56 |
| K5 (thyroid, adherent) | 0.468 | 0.00513 | 0.962 | > 10.2 | 0.904 | > 0.5 | 0.958 | > 10 |  |  | 0.943 | > 2.56 |
